Measured values as given in patent US20240228567A1 (Zymeworks, published 2024).

B1: Masked IL12 HetFc fusion protein variant 37492 (p40 W15K) (Fc fusion)
chain 1: [here human IgG1 Fc with changes without letters]SADGGIWELKKDVYVVELDKYPDAPGEMVVLTCDTPEEDGITWTLDQSSEVLGSGKTLTIQVKEFGDAGQYTCHKGGEVLSHSLLLLHKKEDGIWSTDILKDQKEPKNKTFLRCEAKNYSGRFTCWWLTTISTDLTFSVKSSRGSSDPQGVTCGAATLSAERVRGDNKEYEYSVECQEDSACPAAEESLPIEVMVDAVHKLKYENYTSSFFIRDIIKPDPPKNLQLKPLKNSRQVEVSWEYPDTWSTPHSYFSLTFCVQVQGKSKREKKDRVFTDKTSATVICRKNASISVRAQDRYYSSSWSEWASVPCSGGGGSGGGGSGGGGSNLPVATPDPGMFPCLHHSQNLLRAVSNMLQKARQTLEFYPCTSEEIDHEDITKDKTSTVEACLPLELTKNESCLNSRETSFITNGSCLASRKTSFMMALCLSSIYEDLKMYQVEFKTMNAKLLMDPKRQIFLDQNMLAVIDELMQALNFNSETVPQKSSLEEPDFYKTKIKLCILLHAFRIRAVTIDRVMSYLNAS
chain 2: EPKSSDKTHTCPPCPAPEAAGGPSVFLFPPKPKDTLMISRTPEVTCVVVSVSHEDPEVKFNWYVDGVEVHNAKTKPREEQYNSTYRVVSVLTVLHQDWLNGKEYKCKVSNKALPAPIEKTISKAKGQPREPQVYVLPPSRDELTKNQVSLLCLVKGFYPSDIAVEWESNGQPENNYLTWPPVLDSDGSFFLYSKLTVDKSRWQQGNVFSCSVMHEALHNHYTQKSLSLSPGGGGGSGGGGSGGGSGGGSGGGGSGGGGSQVQLVESGGGVVQPGRSLRLSCAASGFTFSSYGMHWVRQAPGKGLEWVAFIRYDGSNKYYADSVKGRFTISRDNSKNTLYLQMNSLRAEDTAVYYCKTHGSHDNWGQGTMVTVSSGGSGGGSGGGSGGGSGGGSGQSVLTQPPSVSGAPGQRVTISCSGSRSNIGSNTVKWYQQLPGTAPKLLIYYNDQRPSGVPDRFSGSKSGTSASLAITGLQAEDEADYYCQSYDRYTHPALLFGTGTKVTVL
B2: Masked IL12 HetFc fusion protein variant 37475 (p40 E59D_D93H) (Fc fusion)
chain 1: [here human IgG1 Fc with changes without letters]SADGGIWELKKDVYVVELDWYPDAPGEMVVLTCDTPEEDGITWTLDQSSEVLGSGKTLTIQVKDFGDAGQYTCHKGGEVLSHSLLLLHKKEDGIWSTHILKDQKEPKNKTFLRCEAKNYSGRFTCWWLTTISTDLTFSVKSSRGSSDPQGVTCGAATLSAERVRGDNKEYEYSVECQEDSACPAAEESLPIEVMVDAVHKLKYENYTSSFFIRDIIKPDPPKNLQLKPLKNSRQVEVSWEYPDTWSTPHSYFSLTFCVQVQGKSKREKKDRVFTDKTSATVICRKNASISVRAQDRYYSSSWSEWASVPCSGGGGSGGGGSGGGGSNLPVATPDPGMFPCLHHSQNLLRAVSNMLQKARQTLEFYPCTSEEIDHEDITKDKTSTVEACLPLELTKNESCLNSRETSFITNGSCLASRKTSFMMALCLSSIYEDLKMYQVEFKTMNAKLLMDPKRQIFLDQNMLAVIDELMQALNFNSETVPQKSSLEEPDFYKTKIKLCILLHAFRIRAVTIDRVMSYLNAS
chain 2: EPKSSDKTHTCPPCPAPEAAGGPSVFLFPPKPKDTLMISRTPEVTCVVVSVSHEDPEVKFNWYVDGVEVHNAKTKPREEQYNSTYRVVSVLTVLHQDWLNGKEYKCKVSNKALPAPIEKTISKAKGQPREPQVYVLPPSRDELTKNQVSLLCLVKGFYPSDIAVEWESNGQPENNYLTWPPVLDSDGSFFLYSKLTVDKSRWQQGNVFSCSVMHEALHNHYTQKSLSLSPGGGGGSGGGGSGGGSGGGSGGGGSGGGGSQVQLVESGGGVVQPGRSLRLSCAASGFTFSSYGMHWVRQAPGKGLEWVAFIRYDGSNKYYADSVKGRFTISRDNSKNTLYLQMNSLRAEDTAVYYCKTHGSHDNWGQGTMVTVSSGGSGGGSGGGSGGGSGGGSGQSVLTQPPSVSGAPGQRVTISCSGSRSNIGSNTVKWYQQLPGTAPKLLIYYNDQRPSGVPDRFSGSKSGTSASLAITGLQAEDEADYYCQSYDRYTHPALLFGTGTKVTVL
B3: Masked IL12 HetFc fusion protein variant 37476 (p40 K84W_D161R) (Fc fusion)
chain 1: [here human IgG1 Fc with changes without letters]SADGGIWELKKDVYVVELDWYPDAPGEMVVLTCDTPEEDGITWTLDQSSEVLGSGKTLTIQVKEFGDAGQYTCHKGGEVLSHSLLLLHWKEDGIWSTDILKDQKEPKNKTFLRCEAKNYSGRFTCWWLTTISTDLTFSVKSSRGSSDPQGVTCGAATLSAERVRGRNKEYEYSVECQEDSACPAAEESLPIEVMVDAVHKLKYENYTSSFFIRDIIKPDPPKNLQLKPLKNSRQVEVSWEYPDTWSTPHSYFSLTFCVQVQGKSKREKKDRVFTDKTSATVICRKNASISVRAQDRYYSSSWSEWASVPCSGGGGSGGGGSGGGGSNLPVATPDPGMFPCLHHSQNLLRAVSNMLQKARQTLEFYPCTSEEIDHEDITKDKTSTVEACLPLELTKNESCLNSRETSFITNGSCLASRKTSFMMALCLSSIYEDLKMYQVEFKTMNAKLLMDPKRQIFLDQNMLAVIDELMQALNFNSETVPQKSSLEEPDFYKTKIKLCILLHAFRIRAVTIDRVMSYLNAS
chain 2: EPKSSDKTHTCPPCPAPEAAGGPSVFLFPPKPKDTLMISRTPEVTCVVVSVSHEDPEVKFNWYVDGVEVHNAKTKPREEQYNSTYRVVSVLTVLHQDWLNGKEYKCKVSNKALPAPIEKTISKAKGQPREPQVYVLPPSRDELTKNQVSLLCLVKGFYPSDIAVEWESNGQPENNYLTWPPVLDSDGSFFLYSKLTVDKSRWQQGNVFSCSVMHEALHNHYTQKSLSLSPGGGGGSGGGGSGGGSGGGSGGGGSGGGGSQVQLVESGGGVVQPGRSLRLSCAASGFTFSSYGMHWVRQAPGKGLEWVAFIRYDGSNKYYADSVKGRFTISRDNSKNTLYLQMNSLRAEDTAVYYCKTHGSHDNWGQGTMVTVSSGGSGGGSGGGSGGGSGGGSGQSVLTQPPSVSGAPGQRVTISCSGSRSNIGSNTVKWYQQLPGTAPKLLIYYNDQRPSGVPDRFSGSKSGTSASLAITGLQAEDEADYYCQSYDRYTHPALLFGTGTKVTVL
B4: Masked IL12 HetFc fusion protein variant 37477 (p40 K84E) (Fc fusion)
chain 1: [here human IgG1 Fc with changes without letters]SADGGIWELKKDVYVVELDWYPDAPGEMVVLTCDTPEEDGITWTLDQSSEVLGSGKTLTIQVKEFGDAGQYTCHKGGEVLSHSLLLLHEKEDGIWSTDILKDQKEPKNKTFLRCEAKNYSGRFTCWWLTTISTDLTFSVKSSRGSSDPQGVTCGAATLSAERVRGDNKEYEYSVECQEDSACPAAEESLPIEVMVDAVHKLKYENYTSSFFIRDIIKPDPPKNLQLKPLKNSRQVEVSWEYPDTWSTPHSYFSLTFCVQVQGKSKREKKDRVFTDKTSATVICRKNASISVRAQDRYYSSSWSEWASVPCSGGGGSGGGGSGGGGSNLPVATPDPGMFPCLHHSQNLLRAVSNMLQKARQTLEFYPCTSEEIDHEDITKDKTSTVEACLPLELTKNESCLNSRETSFITNGSCLASRKTSFMMALCLSSIYEDLKMYQVEFKTMNAKLLMDPKRQIFLDQNMLAVIDELMQALNFNSETVPQKSSLEEPDFYKTKIKLCILLHAFRIRAVTIDRVMSYLNAS
chain 2: EPKSSDKTHTCPPCPAPEAAGGPSVFLFPPKPKDTLMISRTPEVTCVVVSVSHEDPEVKFNWYVDGVEVHNAKTKPREEQYNSTYRVVSVLTVLHQDWLNGKEYKCKVSNKALPAPIEKTISKAKGQPREPQVYVLPPSRDELTKNQVSLLCLVKGFYPSDIAVEWESNGQPENNYLTWPPVLDSDGSFFLYSKLTVDKSRWQQGNVFSCSVMHEALHNHYTQKSLSLSPGGGGGSGGGGSGGGSGGGSGGGGSGGGGSQVQLVESGGGVVQPGRSLRLSCAASGFTFSSYGMHWVRQAPGKGLEWVAFIRYDGSNKYYADSVKGRFTISRDNSKNTLYLQMNSLRAEDTAVYYCKTHGSHDNWGQGTMVTVSSGGSGGGSGGGSGGGSGGGSGQSVLTQPPSVSGAPGQRVTISCSGSRSNIGSNTVKWYQQLPGTAPKLLIYYNDQRPSGVPDRFSGSKSGTSASLAITGLQAEDEADYYCQSYDRYTHPALLFGTGTKVTVL
B5: Masked IL12 HetFc fusion protein variant 37474 (p40 E86W_D93E) (Fc fusion)
chain 1: [here human IgG1 Fc with changes without letters]SADGGIWELKKDVYVVELDWYPDAPGEMVVLTCDTPEEDGITWTLDQSSEVLGSGKTLTIQVKEFGDAGQYTCHKGGEVLSHSLLLLHKKWDGIWSTEILKDQKEPKNKTFLRCEAKNYSGRFTCWWLTTISTDLTFSVKSSRGSSDPQGVTCGAATLSAERVRGDNKEYEYSVECQEDSACPAAEESLPIEVMVDAVHKLKYENYTSSFFIRDIIKPDPPKNLQLKPLKNSRQVEVSWEYPDTWSTPHSYFSLTFCVQVQGKSKREKKDRVFTDKTSATVICRKNASISVRAQDRYYSSSWSEWASVPCSGGGGSGGGGSGGGGSNLPVATPDPGMFPCLHHSQNLLRAVSNMLQKARQTLEFYPCTSEEIDHEDITKDKTSTVEACLPLELTKNESCLNSRETSFITNGSCLASRKTSFMMALCLSSIYEDLKMYQVEFKTMNAKLLMDPKRQIFLDQNMLAVIDELMQALNFNSETVPQKSSLEEPDFYKTKIKLCILLHAFRIRAVTIDRVMSYLNAS
chain 2: EPKSSDKTHTCPPCPAPEAAGGPSVFLFPPKPKDTLMISRTPEVTCVVVSVSHEDPEVKFNWYVDGVEVHNAKTKPREEQYNSTYRVVSVLTVLHQDWLNGKEYKCKVSNKALPAPIEKTISKAKGQPREPQVYVLPPSRDELTKNQVSLLCLVKGFYPSDIAVEWESNGQPENNYLTWPPVLDSDGSFFLYSKLTVDKSRWQQGNVFSCSVMHEALHNHYTQKSLSLSPGGGGGSGGGGSGGGSGGGSGGGGSGGGGSQVQLVESGGGVVQPGRSLRLSCAASGFTFSSYGMHWVRQAPGKGLEWVAFIRYDGSNKYYADSVKGRFTISRDNSKNTLYLQMNSLRAEDTAVYYCKTHGSHDNWGQGTMVTVSSGGSGGGSGGGSGGGSGGGSGQSVLTQPPSVSGAPGQRVTISCSGSRSNIGSNTVKWYQQLPGTAPKLLIYYNDQRPSGVPDRFSGSKSGTSASLAITGLQAEDEADYYCQSYDRYTHPALLFGTGTKVTVL

molecular target: IL12 receptor on HEK reporter cells stably transfected with genes for the IL12 receptor (UniProt P42701 24-662; Q99665 24-862); assay: cell-based or functional assay

For B1, which “EC50, IL12 RGA, repeat 1” value is on record?
The value was 38.7 nM.

What about the “EC50, IL12 RGA, repeat 2” value of the same binder?
Its value is 122 nM.

B2 was tested. Which “EC50, IL12 RGA, repeat 1” value did it give?
Its value is 9.51 nM.

What about the “EC50, IL12 RGA, repeat 2” value of the same binder?
Its value is 6.79 nM.

With B3 as the binder, how does the “EC50, IL12 RGA, repeat 1” value read?
Its value is 13.3 nM.

What about the “EC50, IL12 RGA, repeat 2” value of the same binder?
Its value is 13 nM.

For B4, which “EC50, IL12 RGA, repeat 1” value is on record?
The value was 18.5 nM.

And the “EC50, IL12 RGA, repeat 2” value?
The value was 21.8 nM.

B5 was tested. Which “EC50, IL12 RGA, repeat 1” value did it give?
The value was 0.585 nM.

What about the “EC50, IL12 RGA, repeat 2” value of the same binder?
The value was 0.482 nM.
